Laboratory results as given in the supplement of paper PMC4604168 (melanoma cell lines).
Some of the results follow. Repeats are few or missing, and single values can be far off.

Experiments:
Test in all cases: cell count relative to DMSO control; melanoma cells; higher = more viable cells
Conditions in all cases: library dose: low library concentration; 72 h; first compound 0.4 µM
WM115 = test system: WM115
WM1716 = test system: WM1716
WM1745 = test system: WM1745
WM3526 = test system: WM3526
WM3619 = test system: WM3619
WM451Lu = test system: WM451Lu
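Further: cell number obtained by counting DAPI-stained nuclei in high-throughput microscope images with image analysis software, screen run in 1,536-well plates.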

Row | Compound | cell count (WM115) [%] | cell count (WM1716) [%] | cell count (WM1745) [%] | cell count (WM3526) [%] | cell count (WM3619) [%] | cell count (WM451Lu) [%]
1 | CCCCCCCCCCCCCCCCCCOP(=O)([O-])OC1CC[N+](C)(C)CC1 [Perifosine] + COc1cc(N2CCC(N3CCN(C)CC3)CC2)ccc1Nc1ncc(Cl)c(Nc2ccccc2S(=O)(=O)C(C)C)n1 [NVP-TAE684] (partner dose 0.08 µM) | 87 | 78.1 | 73.1 | 89.5 | 97.9 | 88.5
2 | CCCCCCCCCCCCCCCCCCOP(=O)([O-])OC1CC[N+](C)(C)CC1 [Perifosine] + Cc1cc([N+](=O)[O-])ccc1NS(=O)(=O)c1cc(Cl)ccc1Cl [FH535] (partner dose 1 µM) | 84.8 | 82 | 83.2 | 97.4 | 85.1 | 93.3
3 | Cn1sc(=O)n(Cc2ccccc2)c1=O + COc1ccc(COc2ccc(Cc3cnc(N)nc3N)cc2OC)cc1 [GW2580] (partner dose 1 µM) | 84.9 | 104 | 92.1 | 111 | 113 | 93.6
4 | CCCCCCCCCCCCCCCCCCOP(=O)([O-])OC1CC[N+](C)(C)CC1 [Perifosine] + CN(C)S(=O)(=O)c1ccc2c(c1)/C(=C/c1cc3c([nH]1)CCCC3)C(=O)N2 [SU6656] (partner dose 0.4 µM) | 74.2 | 109 | 104 | 82.3 | 117 | 74.4
5 | C[C@@H](N)c1ccc(C(=O)Nc2ccnc3[nH]ccc23)cc1 + Cc1nc(Nc2ncc(C(=O)Nc3c(C)cccc3Cl)s2)cc(N2CCN(CCO)CC2)n1 [dasatanib] (partner dose 0.004 µM) | 93.1 | 50 | 46.3 | 93.8 | 78.4 | 84.9
6 | Cn1sc(=O)n(Cc2ccccc2)c1=O + OCCn1cc(-c2cnc3nnn(Cc4ccc5ncccc5c4)c3n2)cn1 [PF04217903] (partner dose 1 µM) | 103 | 121 | 105 | 119 | 117 | 84.4
7 | Cn1sc(=O)n(Cc2ccccc2)c1=O + Oc1nc(-c2ccc(C(F)(F)F)cc2)nc2c1CSCC2 [XAV939] (partner dose 2 µM) | 90.9 | 58.4 | 92.8 | 85.4 | 95.4 | 98.3
8 | C[C@@H](N)c1ccc(C(=O)Nc2ccnc3[nH]ccc23)cc1 + C[C@@H](Oc1cc(-c2cnn(C3CCNCC3)c2)cnc1N)c1c(Cl)ccc(F)c1Cl [Crizotinib] (partner dose 0.2 µM) | 114 | 73 | 83.3 | 99.2 | 106 | 120
9 | CCCCCCCCCCCCCCCCCCOP(=O)([O-])OC1CC[N+](C)(C)CC1 [Perifosine] + C=CCNC1=C2C[C@@H](C)C[C@H](OC)[C@H](O)[C@@H](C)/C=C(\C)[C@H](OC(N)=O)[C@@H](OC)/C=C\C=C(/C)C(=O)NC(=CC1=O)C2=O [Tanespimycin] (partner dose 0.002 µM) | 89.7 | 94.3 | 81.1 | 91.4 | 97 | 107
10 | CCCCCCCCCCCCCCCCCCOP(=O)([O-])OC1CC[N+](C)(C)CC1 [Perifosine] + O=C(CCCCCCC(=O)Nc1ccccc1)NO [vorinostat] (partner dose 0.08 µM) | 91.7 | 99 | 79.6 | 95.1 | 92.2 | 70.4
11 | CCCCCCCCCCCCCCCCCCOP(=O)([O-])OC1CC[N+](C)(C)CC1 [Perifosine] + Nc1ncn([C@H]2C[C@H](O)[C@@H](CO)O2)c(=O)n1 [decitabine] (partner dose 0.1 µM) | 96.3 | 83.4 | 97 | 100 | 88.9 | 92.7
12 | Cn1sc(=O)n(Cc2ccccc2)c1=O + NCC(=O)Nc1ccc(-n2nc(C(F)(F)F)cc2-c2ccc3c(ccc4ccccc43)c2)cc1 [OSU03012] (partner dose 1 µM) | 76.9 | 94.3 | 94.3 | 52.6 | 104 | 57.8
13 | C[C@@H](N)c1ccc(C(=O)Nc2ccnc3[nH]ccc23)cc1 + Oc1nc(-c2ccc(C(F)(F)F)cc2)nc2c1CSCC2 [XAV939] (partner dose 2 µM) | 110 | 52.9 | 50.6 | 101 | 134 | 94.5
14 | CCCCCCCCCCCCCCCCCCOP(=O)([O-])OC1CC[N+](C)(C)CC1 [Perifosine] + NCC(=O)Nc1ccc(-n2nc(C(F)(F)F)cc2-c2ccc3c(ccc4ccccc43)c2)cc1 [OSU03012] (partner dose 1 µM) | 83.1 | 99.6 | 119 | 50.8 | 114 | 61.7
15 | CCCCCCCCCCCCCCCCCCOP(=O)([O-])OC1CC[N+](C)(C)CC1 [Perifosine] + Cn1c(Nc2ccc(C(F)(F)F)cc2)nc2cc(Oc3ccnc(-c4ncc(C(F)(F)F)[nH]4)c3)ccc21 [CHIR265] (partner dose 0.08 µM) | 60.3 | 83.6 | 64 | 67.3 | 70.4 | 83.8
16 | Cn1sc(=O)n(Cc2ccccc2)c1=O + O=C(Nc1ccccc1)c1cc([N+](=O)[O-])ccc1Cl [GW9662] (partner dose 2 µM) | 101 | 110 | 98.7 | 96.8 | 87.8 | 101
17 | CCCCCCCCCCCCCCCCCCOP(=O)([O-])OC1CC[N+](C)(C)CC1 [Perifosine] + CCCCCCCCCCCC1=C(O)C(=O)C=C(O)C1=O [Embelin] (partner dose 1.2 µM) | 89.3 | 110 | 90.2 | 103 | 89.1 | 81.9
18 | Cn1sc(=O)n(Cc2ccccc2)c1=O + Cc1ccc(NC(=O)c2cccc(N(C)C)c2)cc1NC(=O)c1ccc(O)cc1 [ZM336372] (partner dose 2 µM) | 90.9 | 115 | 91.1 | 96.4 | 89.4 | 96.5
19 | Cn1sc(=O)n(Cc2ccccc2)c1=O + COc1cc2ncnc(Nc3ccc(Oc4ccccc4)cc3)c2cc1OC [SrcI1] (partner dose 2 µM) | 103 | 135 | 94.2 | 95.7 | 94.7 | 104
20 | C[C@@H](N)c1ccc(C(=O)Nc2ccnc3[nH]ccc23)cc1 + O=C(CCCCCCC(=O)Nc1ccccc1)NO [vorinostat] (partner dose 0.08 µM) | 128 | 69.9 | 97.8 | 107 | 92.3 | 79.2
21 | CCCCCCCCCCCCCCCCCCOP(=O)([O-])OC1CC[N+](C)(C)CC1 [Perifosine] + Nc1cccc2c1CN(C1CCC(=O)NC1=O)C2=O [lenalidomide] (partner dose 1 µM) | 96.1 | 81.7 | 98 | 93.4 | 80.5 | 99.1
22 | C[C@@H](N)c1ccc(C(=O)Nc2ccnc3[nH]ccc23)cc1 + O=C(O)c1ccc(-c2c[nH]c3ncc(-c4ccccc4)cc23)cc1C1CCCC1 [GSK650394] (partner dose 0.16 µM) | 105 | 68.1 | 88.4 | 98.5 | 99 | 105
23 | Cn1sc(=O)n(Cc2ccccc2)c1=O + CO[C@@H]1[C@H](N(C)C(=O)c2ccccc2)C[C@H]2O[C@]1(C)n1c3ccccc3c3c4c(c5c6ccccc6n2c5c31)C(=O)NC4 [Midostaurin] (partner dose 0.08 µM) | 85.8 | 75.8 | 90.8 | 72 | 85.8 | 97.9
24 | C[C@@H](N)c1ccc(C(=O)Nc2ccnc3[nH]ccc23)cc1 + O=c1cc(-c2cccc3c2Sc2ccccc2S3)oc(N2CCOCC2)c1 [KU55933] (partner dose 1 µM) | 102 | 64.6 | 88.7 | 113 | 95.5 | 99.8
25 | CCCCCCCCCCCCCCCCCCOP(=O)([O-])OC1CC[N+](C)(C)CC1 [Perifosine] + CCc1ccc(CCOc2ccc(CC3SC(=O)NC3=O)cc2)nc1 [pioglitazone] (partner dose 2 µM) | 96.1 | 56.6 | 98 | 81.8 | 89.5 | 40.9
26 | Cn1sc(=O)n(Cc2ccccc2)c1=O + COc1ccc(-c2ccc3c(N4CCOCC4)nc(N4C[C@@H](C)O[C@@H](C)C4)nc3n2)cc1CO [KU0063794] (partner dose 0.02 µM) | 106 | 96.7 | 93.6 | 85.8 | 94.7 | 107
27 | C[C@@H](N)c1ccc(C(=O)Nc2ccnc3[nH]ccc23)cc1 + C[C@@H]1CCN(C(=O)CC#N)C[C@@H]1N(C)c1ncnc2[nH]ccc12 [CP690550] (partner dose 1 µM) | 120 | 87.9 | 79 | 112 | 135 | 93.8
28 | C[C@@H](N)c1ccc(C(=O)Nc2ccnc3[nH]ccc23)cc1 + Cn1cnc2c(F)c(Nc3ccc(Br)cc3Cl)c(C(=O)NOCCO)cc21 [selumetinib] (partner dose 0.015 µM) | 114 | 59.6 | 83.4 | 116 | 75 | 112
29 | C[C@@H](N)c1ccc(C(=O)Nc2ccnc3[nH]ccc23)cc1 + C=CCn1c(=O)c2cnc(Nc3ccc(N4CCN(C)CC4)cc3)nc2n1-c1cccc(C(C)(C)O)n1 [MK1775] (partner dose 0.02 µM) | 92.2 | 68.2 | 63.7 | 114 | 82.9 | 111
